{
  "source": "the supplement of paper PMC12632987",
  "binders": {"B1": {"name": "LC3A_28_739 (protein)", "chain": "SEIEKQLEEAIKEAEEAAKKGESAVIEITVPETADEEDIEKVIEALEKIAEILKDVKDQAIVVNVEGGVKQEHIDKLMDAGEEIEEKYPNVTVIFALDEE"}, "B2": {"name": "LC3A_147_501 (protein)", "chain": "YKVVVDIDLLTKNDEELVKELVKKIEEELKKKGYDVKSEIEFEKVDENTTYAHIKITVETETEEEAKEAADLILDLIDKFVEENKDKILGSLINVEIEKK"}, "B3": {"name": "LC3A_free_46_2356 (protein)", "chain": "VKAEIDIDLLHEDEEVLKKAVEEIVKKTKEIAKKYNLEVKIEVKLSKDEDGSYFAEIKITVKAKTKEDAEKFVNDLINAIDEITKKYGVAAIISYEIEDE"}, "B4": {"name": "LC3A_40_1916 (protein)", "chain": "MYEVSIDILADDPAATAAALDKAAAAAKAKIKSASGEKILAALDKMRAAAAAGEPAVATITGISEEEANTLVQILEAAEEALHAAGVRVAALISVEEEEE"}, "B5": {"name": "LC3A_28_1186 (protein)", "chain": "SALDENLEAALAEAKAAAAAGEPTVITITVPSTADEEDIEKVKETLEEVAEILKDIPGSAIIVDVERGVPQEHIKKLAEKAEEVEEKYPNVTVLIALEEE"}, "B6": {"name": "LC3A_13_346 (protein)", "chain": "TIKLEAETPEELLEKSKAALKAHPGETIEITVTIENEEEAEKVAEALKEIFDLAIEYGNKLNVTLKGKKDLVNYAALLIGSYLFEKLGQIDANVTTEEVE"}, "B7": {"name": "LC3A_3_1641 (protein)", "chain": "MEEEVEEMAKLLEEAGHSEEVIEAFRETAELLMERGYENALKTLIEKMKEMIDLPDDLLLDFLNDVLNYIKTNDDSEEEVIKKINEFATITKNEGEIIEL"}, "B8": {"name": "LC3A_free_0_2093 (protein)", "chain": "MKIEITVLLISNEPVSEEKRKELIEEAERIAERISEEKGLETEVEEKIIDGRLVLTLTIIGEGLSIDEALEIEDEIVERLEEKAKELGVDVTIFSSVEEL"}, "B9": {"name": "LC3A_3_1600 (protein)", "chain": "SAALVAAQLERLRAAGFSPEVLAAARRLLEALAAKGFEEAAKTATDELLEAKDLPDELLVATLERLLHVVETEDLSEEEVIKEIKEEFRVARLEAEIEEL"}, "B10": {"name": "LC3A_3_1791 (protein)", "chain": "AEELIEALLAELRAAGKSDETLEAVRAALEALAERGYEEALETFVEELRELLDAPDEILLWLAEEVLRLVEEEDLNEEELKERIEELARLARSEAEIIEL"}, "B11": {"name": "LC3A_141_359 (protein)", "chain": "ETKTETKTLTATTEEEAEKVAEEIKAAIAAFMKKTGAKAVKVTVTITAYNEKTGKTETKTIVDTVTAENLDLFEEGLLIELLLFFERGATKVTVTVTMES"}, "B12": {"name": "LC3A_3_1667 (protein)", "chain": "AEELLKATLKWLKAEGKSEEVLKAVKEAAEELIKKGYEEALKTFVELLKEMKDLSDELLLDFANEVLELVKTEDIDEETLTKKIKEIARVIKLETEIEEL"}, "B13": {"name": "LC3A_45_1929 (protein)", "chain": "MWRATVDLLVPKELAEEVYKLIKEKLEELQKKYGPELKVDWKTLEESYEASKNEEEVYFRVEIYHPDKQVALDAADELVDAIEEATGGKVASIISIEEVP"}, "B14": {"name": "LC3A_28_1291 (protein)", "chain": "SALEKSIEKALKEAKEAKKKGESKVIILEVPGDATEEEIEKAIKTLEEIAEILKDVKDQAIIVDVDGKVPQEYIDKIAEKAEEIEKKYPNVTVIIALDEE"}, "B15": {"name": "LC3A_28_1251 (protein)", "chain": "MEVEEQIKKAKEKVKEAVAKGEEALVTLTVTKDSTEEDIEKVIEAMEEIAELAKDLPALTIIVDVEKGVPQEHIDKLADKGEEIEKKYPNVTVIIALEEE"}, "B16": {"name": "LC3A_free_8_2518 (protein)", "chain": "MSEKFAQKAVEILDELEKKVVELLKKKGASELDILEAELLLGSIIAEVISLKDKSPEEILKAIEEGLKELVEELKEYKEEVKKLADEALKKIKEAKKELE"}, "B17": {"name": "LC3A_free_8_2529 (protein)", "chain": "NVQKAVEETTKMLDELEEEARALGEELGLDPLDLADLELEIGEAIIEVIELVDKPLEEIYEKTKESLKRIEALAAEIHPELEALVKKKSKEILEKLEKMK"}, "B18": {"name": "LC3A_28_1087 (protein)", "chain": "SELEEQLKKALEEAKKAKEEGKEVTLEITVPDTATEEDIELVKETLKEIAEIAKELPSLSVVINLTGKNAQAKATELSAHAEELEKEVPNLTVIIALDED"}, "B19": {"name": "LC3A_28_696 (protein)", "chain": "SAIDEQLERARREVEEAVAAGEDALVEFTVTGDATQEDIERLLAAVREMAELMAESGKLYVVIDLVGDVSQEHQDLLADGLDALEAEYPHVSVVIALDED"}, "B20": {"name": "LC3A_147_447 (protein)", "chain": "MKYEITVDALFKNDKELALEVAEKLREIAEKYGGEVEVKLEEEQETPTTTLYFLEVTITFEDEEKAKKAEKEISELIDETAEKYPDKFLGAIISFEEVEE"}, "B21": {"name": "LC3A_28_925 (protein)", "chain": "MTIEEIIEEVERKVEEGIAAGEDILIEIKIGSDYTVEEAEEIMERVREEVKRASEAGLKVYIVIDADNVSQEVLTAIAEKGDEIEKEYPNVKVIIALDEE"}, "B22": {"name": "LC3A_147_403 (protein)", "chain": "YIVEADIDIITKNAKEEVLAAFEEIVEELKEKGYEVELEVEVEKLDEDTWYINVKIKVETETKEEAEEVADYIEDKIDEIEEKLKDKILASLISIEIIEE"}, "B23": {"name": "LC3A_3_1564 (protein)", "chain": "MEKKREEALKYLKEKGASEEVLEAAKRAFDALIEKGYYEAAETFIEEAKKLADLPDEILLWFFTEVLDLVENEDLDEEETIERIKELARIARNEGEIEEL"}, "B24": {"name": "LC3A_3_1400 (protein)", "chain": "FEEIKKETIEFLKEAGASEEVIEKAKEVLEKLEERGYLEAAKTFKEELKKLKDASDELLLDFLEEVLRYLEENDDSEEEVVEKIKELARIALNDNEIEEL"}, "B25": {"name": "LC3A_3_1618 (protein)", "chain": "LEELEKEAIKALKEAGKSEETIELFKEVVDLLKEKGYEEAAKTLIELLIEGKDLPEEILRWFLEEVKELVETEDLSEEELKEKIKEIYKIAKSESEIIEL"}, "B26": {"name": "LC3A_28_1100 (protein)", "chain": "SALDENLKKALEEAKKAAAEGKEALIEITVGDDATEEDLKRLVETIEEIAEITKNLPALTVVINLEGEKAQEKADFLSKRADELEKKYPNLTIIIALDED"}, "B27": {"name": "LC3A_28_752 (protein)", "chain": "MDVAEEVARAIAEAKAAAAAGEEAVITLTVPAGATEEDVELFIAGMREIAEIAKDMKSMTIVVDIESGVPEEHINRLMDEGEEIEKKYPNVTVIFALDED"}, "B28": {"name": "LC3A_45_1925 (protein)", "chain": "MWEATLDVLVPRELAEKAYATAKELMAELEAEHGPDLRVDWATLDESYAASKDEEDVYLEIRIYHPDEQVALDAADRLEDELNAALGGKASSIISLKKLP"}, "B29": {"name": "LC3A_3_1629 (protein)", "chain": "MEEAVEELLEELRAAGHDEETLEAFREVAELLLERGFEEALKVLIEEMRKLKDAPSEILLDALQEVLEVLKTEDLNEEETIEKIKEIFTVARNESEIIEL"}},
  "note": "Whole data set: some 2,300 sequences, median “median log2 fold change of GCK-ALFA target abundance (FLAG IP / Myc IP barcode read proportion)” near 0.095, cut for the lowest 2% near -0.47. This is one part of the list.",
  "data": [
    {"target": "MAP1LC3A, Q9H492", "assay": "median log2 fold change of GCK-ALFA target abundance (FLAG IP / Myc IP barcode read proportion) (log2 ratio); each designed protein is fused to an ALFA-tag nanobody in HEK293 cells to bring the named protein to FLAG-tagged glucokinase (GCK); Myc marks an untargeted standard; higher = target protein stabilised (more abundant)", "conditions": "target protein: 3xFLAG-MCP-GCK-ALFA reporter; HEK293 landing pad (RPLP)", "summary_of_the_method": "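Sequencing of reverse-transcribed, amplified circular RNA barcodes from anti-FLAG and anti-Myc immunoprecipitates provided the readout for an ALFA-nanobody-fused binder library recombined into HEK293 landing-pad cells. Those cells were induced with 2 μg mL^−1 doxycycline, transfected with a plasmid expressing a FLAG-tagged target and a Myc-tagged standard, and lysed after 48 h. Target abundance is the per-binder median log2 ratio of FLAG to Myc barcode read proportions. Only barcodes at a proportion of ≥10^−7 in both replicates and binders with ≥3 barcodes per replicate were kept, with a 10^−6 pseudocount added before the two replicates were pooled.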", "values": [
      {"binder": "B1", "median log2 fold change": 0.0231},
      {"binder": "B2", "median log2 fold change": -0.19},
      {"binder": "B3", "median log2 fold change": -0.15},
      {"binder": "B4", "median log2 fold change": 0.117},
      {"binder": "B5", "median log2 fold change": 0.0531},
      {"binder": "B6", "median log2 fold change": 0.201},
      {"binder": "B7", "median log2 fold change": 0.142},
      {"binder": "B8", "median log2 fold change": -0.403},
      {"binder": "B9", "median log2 fold change": 0.216},
      {"binder": "B10", "median log2 fold change": 0.0945},
      {"binder": "B11", "median log2 fold change": 0.173},
      {"binder": "B12", "median log2 fold change": 0.313},
      {"binder": "B13", "median log2 fold change": -0.0313},
      {"binder": "B14", "median log2 fold change": 0.115},
      {"binder": "B15", "median log2 fold change": 0.124},
      {"binder": "B16", "median log2 fold change": 0.169},
      {"binder": "B17", "median log2 fold change": 0.0184},
      {"binder": "B18", "median log2 fold change": 0.251},
      {"binder": "B19", "median log2 fold change": -0.293},
      {"binder": "B20", "median log2 fold change": -0.249},
      {"binder": "B21", "median log2 fold change": -0.221},
      {"binder": "B22", "median log2 fold change": -0.0503},
      {"binder": "B23", "median log2 fold change": 0.139},
      {"binder": "B24", "median log2 fold change": 0.298},
      {"binder": "B25", "median log2 fold change": 0.248},
      {"binder": "B26", "median log2 fold change": 0.29},
      {"binder": "B27", "median log2 fold change": -0.0377},
      {"binder": "B28", "median log2 fold change": -0.101},
      {"binder": "B29", "median log2 fold change": 0.295}
    ]}
  ]
}
